Reference: PMC10668032
The other results are listed elsewhere or left out. At the low end of the ranking, values are background and their order means little.

Molecular target: SIX1 homeodomain (reference allele) (UniProt Q15475)
Assay: universal protein binding microarray
Conditions: Universal all-10-mer PBM (8x60K, AMADID 030236), 300 nM GST-tagged protein, Alexa Fluor 488 anti-GST; buffer, salt, pH and temperature not stated; high values mean tight binding; most listed sequences are background and not binding sites; double strand, one strand shown

Sequence | binding signal [E-score]
CATCACGG | 0.00309
GACATTGC | -0.0675
ATGGTAGG | -0.0152
CCACGGAC | -0.134
AGGAATGC | -0.178
CGGTTAAC | -0.0818
TACACACA | 0.156
GCAAAATA | 0.0309
ATTACCTA | 0.0771
AGGCCGGC | -0.221
CTACATAC | 0.159
ACCCTGAC | -0.0416
GGCAGCTA | -0.113
AGCACCAA | -0.0758
CTTACATA | -0.0582
CCCTCTGC | -0.145
AAAGCGCC | -0.167
CTCCGCTA | -0.205
CGTATAAA | 0.219
GTGTATCA | 0.462
CACGACCA | -0.108
AGAGCGGA | -0.133
CATCTACG | 0.0999
AACTATCT | 0.0574
CCCACACG | 0.109

Sequence | binding signal [E-score]
ACTATGCG | 0.0748
GCTCTCGA | -0.22
AGCATTTG | -0.148
CACAATGA | 0.025
CCTAAATC | 0.0404
GTCGCATA | 0.0853
CTTCAGGC | -0.241
ACATTAAA | -0.264
TGCCATAA | -0.112
CTACTGAG | 0.0072
ATCGCCAG | 0.175
ATAACAAC | -0.00556
AGTGATTC | 0.00105
ACGATATG | 0.417
AACAAATT | -0.266
CCCCATAG | 0.0304
CCCGATCC | 0.366
AATCGCGG | -0.00756
CTCGATTA | 0.0353
AAATGATT | -0.322
ACCGCTAG | 0.0327
ACCGGGCA | -0.119
GCTCGTGA | -0.0958
ACCATTCC | -0.0379
GCATATGA | 0.167

Sequence | binding signal [E-score]
ATATGATC | 0.378
TCCTAAAA | -0.133
CGAATAAC | -0.173
ACGCGTCC | -0.0293
ACCGGCAA | -0.0271
CACCGATA | 0.374
AAGCGTGC | -0.241
GTTGCGCA | -0.307
ACTATCCC | 0.294
GGGGGAAA | -0.125
ATAGCTCA | 0.148
AAGGATCC | 0.35
AACGAAGT | -0.21
ATCGCGGC | 0.19
GGCCTACC | -0.119
ACGAACAT | 0.0488
CTTCGAAG | -0.199
GCCTGAGC | -0.134
AGCAAAGA | -0.179
CCTCAACG | -0.132
AGGTATCA | 0.487
ACCGATTA | 0.0656
GTAAACAC | 0.0999
GTAGACCA | -0.0545
ATTCACTA | -0.146

Sequence | binding signal [E-score]
CGCGCAAA | 0.0692
ACAAGCTG | -0.0746
TATCGACA | 0.343
AGAATGCT | -0.0372
ATCATGCC | 0.244
AAACCGAA | -0.0402
CCGGGGCC | 0.0128
ATTCGTTG | 0.0927
GCCGGGAA | -0.113
GTAGCCTA | -0.141
AAATGATA | 0.415
TAGCTGGA | 0.0126
ATTCTTGC | -0.0596
TAGCCCCA | 0.0784
ACTCGTTG | -0.236
ATTACGGC | 0.0297
GACCTCTC | -0.0541
GGCAGGCA | -0.199
CCGCTGGA | 0.00617
AATCTCGA | -0.0708
ATCACTGA | 0.243
TAGAACTA | -0.168
CGAAGATA | 0.325
AACGCACC | -0.0365
AAGTTAGA | 0.0886

Sequence | binding signal [E-score]
AACGAGCG | -0.0799
CTCGATAC | 0.41
CATCAATG | 0.0199
ACACGTAT | 0.365
ATCGCGAC | 0.232
GAACCGAC | -0.0194
ACGCAGTG | -0.132
GAAAACAA | -0.0524
ATATACCC | 0.446
GATTCGCA | -0.0805
AAGGTCGT | -0.197
GAGGATGC | 0.0652
CACCAGCA | 0.0581
ATCCGTTA | 0.283
CTGCTTTC | -0.0661
CTTAAACA | -0.158
CGCGGCGC | 0.0414
AAGAGGAC | -0.145
CGGTTAAA | -0.0979
ACCAGGGA | 0.0267
ATCCCGTA | 0.342
AATTGATC | 0.291
GCCAAAAA | -0.161
ACAGAGGA | 0.0638
AGAAAACC | -0.131

Sequence | binding signal [E-score]
AAGTGTTG | -0.152
AGACTACG | -0.17
GTCAAACA | -0.0981
GCTGCTAA | -0.064
AACTCCGC | -0.234
GGACACCA | 0.386
GAAGTAGC | -0.165
GATTAACA | 0.106
CTCTACAC | 0.163
CTTAGGAC | -0.176
GGGGACCA | -0.151
CATGGAAC | -0.254
AGAGATAA | 0.13
GTATCCGA | 0.426
AGTGGAAG | -0.0264
ACCTAGGC | -0.229
AGAACGAT | 0.18
ATCAAACG | -0.0343
CCTCGAAC | -0.163
ACTAGCAA | -0.00466
ATTCCAAA | 0.0345
AAACTGAC | -0.252
CAAATCGC | -0.242
GATCGGCC | 0.255
ACTGAAAT | -0.234

Sequence | binding signal [E-score]
AGTAGACT | -0.136
CGCGCGAG | -0.0823
ACCTCGAG | 0.0888
ATATGCAC | 0.198
TAGGACCA | -0.08
GCGGGCTA | -0.0522
GCATTACC | -0.0175
GCGTATCC | 0.369
ATCATGTA | 0.257
TGGACTAA | -0.208
AACTCCCA | -0.0666
ACATAAAA | -0.008
CACTGCAC | 0.0751
ACGGCGAG | -0.071
AAGTTCAC | -0.211
CAGTCGGG | 0.0175
GCTGGCAC | -0.137
AAAGGTCT | -0.185
AGTAGTCA | -0.147
GGCGTAGA | -0.177
ATGGTCAA | -0.0625
ACGGCTCT | 0.0166
